This note sets out measurements from US20250282802A1, “PHOSPHONATE PRODUCTS AND METHODS” (priority 2020, published 2025).

Each structure is given as a SMILES string.

Experiment [1] deals with mustard seedlings (Brassica sp.). The following applies: for root length of seedlings relative to water-treated controls / total dry weight of seedlings relative to water-treated controls: mustard seedlings, seven days growth.
The subject of experiment [2] is Arabidopsis thaliana Col-0 seedlings. The conditions noted are these: A. thaliana Col-0 seedlings, seven days growth.
[3] abbreviates: seedlings, seven days, dose-dependent.

On to `O=C(O)CNCP(=O)(O)O` [glyphosate, reference compound], for which, in experiment [1], the “root length of seedlings relative to water-treated controls” value is reported as “substantial reduction” and the “total dry weight of seedlings relative to water-treated controls” value is on record as “substantial reduction”. Besides, in experiment [2], the “root length of seedlings relative to water-treated controls” value is recorded as “substantial reduction” and the “total dry weight of seedlings relative to water-treated controls” value is recorded as “substantial reduction”.

`O=C(O)/C=C(\C(=O)O)C(O)P(=O)(O)O` (stereo not shown) [pantaphos, 2-(hydroxy(phosphono)methyl)maleate]: in experiment [1], the “root length of seedlings relative to water-treated controls” value was “substantial reduction” and the “total dry weight of seedlings relative to water-treated controls” value was “substantial reduction”. Also, in experiment [1] (seedlings, seven days), the “potency versus glyphosate in the dry weight assays” value is “significantly more potent” and the “potency versus phosphinothricin in the root length assay” value is “significantly more potent”. In addition, in experiment [1] (setting [3]), the “concentrations with significant activity in the dry weight assay” value is on record as “above 31.3 μM” and the “concentrations with significant activity in the root length assay” value was at least 1.95 µM. Moreover, in experiment [2], the “root length of seedlings relative to water-treated controls” value is on record as “substantial reduction” and the “total dry weight of seedlings relative to water-treated controls” value is “substantial reduction”.

Consider `CP(=O)(O)CC[C@H](N)C(=O)O` [phosphinothricin, reference compound], for which, in experiment [1], the “root length of seedlings relative to water-treated controls” value is on record as “substantial reduction” and the “total dry weight of seedlings relative to water-treated controls” value is on record as “substantial reduction”. Besides, in experiment [2], the “root length of seedlings relative to water-treated controls” value is “substantial reduction” and the “total dry weight of seedlings relative to water-treated controls” value is “substantial reduction”.
